Test results reported in the GPR68 mutational scans of Howard et al. (2025).

B1: GPR68, Q15743 (parent)
chain: MGNITADNSSMSCTIDHTIHQTLAPVVYVTVLVVGFPANCLSLYFGYLQIKARNELGVYLCNLTVADLFYICSLPFWLQYVLQHDNWSHGDLSCQVCGILLYENIYISVGFLCCISVDRYLAVAHPFRFHQFRTLKAAVGVSVVIWAKELLTSIYFLMHEEVIEDENQHRVCFEHYPIQAWQRAINYYRFLVGFLFPICLLLASYQGILRAVRRSHGTQKSRKDQIQRLVLSTVVIFLACFLPYHVLLLVRSVWEASCDFAKGVFNAYHFSLLLTSFNCVADPVLYCFVSETTHRDLARLRGACLAFLTCSRTGRAREAYPLGAPEASGKSGAQGEEPELLTKLHPAFQTPNSPGSGGFPTGRLA

Tests used:
[1] = variants of: B1; experiment: cAMP reporter score (Enrich2 score, wild type = 0); higher = more signal; HEK293T, FACS bins
[2] = variants of: B1; experiment: surface expression score (Enrich2 score, wild type = 0); higher = more signal; HEK293T, FACS bins

Variant	cAMP reporter score ([1]; pH 5.5)	cAMP reporter score ([1]; pH 6)	cAMP reporter score ([1]; pH 6, modulator: ogerin)	cAMP reporter score ([1]; pH 6.5, modulator: ogerin)	surface expression score [2]
R315_A316del	0.126	-1.21	-0.168	-0.161	-0.556
R317_E318insGS	0.34	-0.338	0.318	0.503	0.116
E318F	0.091	-0.42	-0.393	-0.846	-0.741
E318I	-0.556	-0.101	-0.754	-0.633	-1.6
E318S	0.2	1.25	-0.284	0.321	-0.297
E318W	-0.639	-0.577	-0.651	-0.576	-0.648
E318V	0.882	-0.553	0.715	0.577	-0.4
E318A	0.064	-0.179	0.075	0.586	-0.047
E318C	0.05	-0.871	-0.308	-0.411	-0.341
E318D	0.207	-0.098	0.23	-0.118	0.317
E318P	1.2	3.69	0.975	1.77	0.75
E318Y	-0.084	-0.734	-0.112	-0.819	-0.662
E318K	1.76	1.32	1.39	1.13	0.987
E318Q	-0.002	-0.739	0.557	0.332	0.726
E318M	-0.612	-0.281	-0.021	-0.73	-1.2
E318H	0.266	-0.589	0.726	0.226	-0.678
E318L	0.114	-1.42	0.247	-0.138	-0.808
E318T	0.259	0.698	-0.14	-0.077	-0.147
E318R	1.21	-0.346	1.26	0.894	0.193
E318G	-0.15			-1.28	-1.26
E318N	0.242	-0.421	-0.291	-0.366	-0.562
A316_R317del	0.418	-0.712	0.365	0.54	-0.46
R312_T313insGSG	1.06	1.22	1.31	1.14	1.12
A319_Y320insGS	1.1	1.13	0.884	0.894	0.514
G314del	0.559	-0.317	0.416	0.018	1.21

Variant	cAMP reporter score ([1]; pH 5.5)	cAMP reporter score ([1]; pH 6)	cAMP reporter score ([1]; pH 6, modulator: ogerin)	cAMP reporter score ([1]; pH 6.5, modulator: ogerin)	surface expression score [2]
T309del	-0.025	0.049	0.694	0.084	0.054
A319_Y320insG	0.686	-0.211	0.338	0.515	0.22
F307I	1.78	0.453	1.16	-0.066	1.04
F307E	0.759	0.323	1.3	0.702	1.41
F307R	0.793	0.485	0.647	0.618	0.109
F307K	0.645	2.66	1.24	1.78	0.714
F307L	0.306	0.397	0.318	0.605	0.126
F307T	0.792	0.636	1.26	0.865	0.386
F307S	-0.027	0.212	0.244	0.51	-0.068
F307N	1.87	3.64		2.11	1.5
F307Y	-0.546	1.15	-0.659	-0.058	-1.26
F307G	1.03	0.508	0.914	0.495	0.086
F307Q	-0.009	0.026	-0.042	-0.2	0.553
F307V	1.06	0.497	1.28	0.38	0.254
F307H	1.01	0.31	1.09	0.465	0.739
F307P	0.29	-0.315	0.23	0.246	-0.274
F307C	0.211	-1.05	-0.684	-0.694	-0.649
F307D	-0.435	0.022	-0.081	-0.22	-0.081
F307M	0.742	-0.137	0.752	-0.061	0.457
F307A	0.119	-0.068	0.752	-0.034	0.165
T309_C310del	0.205		-0.046	0.484	0.054
F307_L308insGS	0.797	-0.306	0.783	0.225	0.044
F307_L308insGSG	0.267	-1.12	-0.409	-0.161	-0.75
R312_T313insG	1.06		1.17	1.35	1.62
R317del	0.877	-0.202	0.736	0.692	0.644

Variant	cAMP reporter score ([1]; pH 5.5)	cAMP reporter score ([1]; pH 6)	cAMP reporter score ([1]; pH 6, modulator: ogerin)	cAMP reporter score ([1]; pH 6.5, modulator: ogerin)	surface expression score [2]
R315N	0.083	0.494	-0.113	1.49	0.676
R315V	-0.545	0.291	-0.438	1.37	
R315Q	1.02	0.852	0.857	0.588	1.46
R315T	0.737	0.624	0.666	0.852	1.27
R315A	0.976	1.15	0.78	0.45	1.27
R315S	1.04	0.306	0.826	0.283	0.585
R315G	0.715	-0.227	-0.003	-0.084	0.782
R315Y	1.11	0.495	1.44	0.627	0.618
R315L	0.523	0.013	1.09	0.021	0.236
R315F	0.37	0.563	0.478	0.589	-0.669
R315W	-1.33	-1.18	-2.01	-1.56	-1.38
R315D	0.43	-0.052	0.924	0.917	0.083
R315P	-0.215		-0.126	-0.365	-0.98
R315H	0.485	0.191	0.051	0.452	0.14
R315C	0.111	-0.634	0.186	-0.542	-0.408
R315M	-0.762	-0.633	-0.457	-0.653	0.276
R315I	-0.292	-0.959	-0.129	-0.928	-0.043
R315K	0.341	0.668	0.347	-0.592	0.584
T313_G314insGS	1.61	1.71	0.97	1.11	1.53
E318_A319insG	-0.011	-0.162	0.455	-0.083	0.613
T309_C310insG	0.366	0.015	-0.512	0.35	1.29
R317_E318insGSG	0.449	-0.303	0.956	1.35	0.822
T309_C310insGSG	0.633	1.26	0.771	1.54	0.39
S311T	0.999	0.55	0.987	0.425	0.182
S311D	1.01	2.23	1.08	1.41	0.701

Variant	cAMP reporter score ([1]; pH 5.5)	cAMP reporter score ([1]; pH 6)	cAMP reporter score ([1]; pH 6, modulator: ogerin)	cAMP reporter score ([1]; pH 6.5, modulator: ogerin)	surface expression score [2]
S311L	1.79		0.576	1.3	0.976
S311K	0.872	0.33	0.34	0.852	0.425
S311C	0.737	0.795	0.325	-0.155	0.315
S311V	0.803	0.771	0.523	-0.1	0.791
S311F	0.343		1.11	-0.114	0.894
S311Y	0.185	-0.338	0.842	0.623	-0.288
S311H	-0.126	-0.453	0.139	-0.3	-0.181
S311M	-0.052	0.138	-0.157	-0.289	-0.343
S311Q	0.46	0.561	0.443	-0.49	0.788
S311E	0.396	-0.632	0.291	0.485	-0.028
S311R	1.39		1.08	1.49	1.07
S311P	0.908	1.79	0.955	1.55	0.503
S311N	0.334	-0.173	0.68	-0.888	0.882
S311G	0.157	1.29	-0.165		1.01
S311I	1.58			-2.15	0.64
F307_T309del	0.125	0.007	0.097	-0.876	-0.333
G314_R315insG	0.43	-0.186	0.289	-0.057	-0.295
R312N	0.182	-0.887	0.581	0.342	-0.454
R312K	-0.223	0.067	-0.42	-0.197	-0.288
R312S	0.116		-0.308	1.05	-0.319
R312F	-0.075	-0.37	-0.064	-0.507	-0.047
R312W	-0.056	0.058	-0.442	-0.658	0.124
R312I	0.704	-0.423	0.662	0.032	0.603
R312D	0.241	-0.845	0.608	0.623	-0.492
R312H	0.399	0.775	0.431	-0.092	-0.031

Variant	cAMP reporter score ([1]; pH 5.5)	cAMP reporter score ([1]; pH 6)	cAMP reporter score ([1]; pH 6, modulator: ogerin)	cAMP reporter score ([1]; pH 6.5, modulator: ogerin)	surface expression score [2]
R312Y	1.08		1.27	0.225	0.963
R312E	0.31		0.605	0.298	-0.826
R312L	-0.52	-0.455	-0.408	-1.44	-1.21
R312A	-1.33		0.514	0.999	-0.981
R312T	0.367	0.302	0.338	-0.473	0.987
R312M	0.115	-0.591	-0.055	-0.462	-0.317
R312C	0.376		0.351	-0.239	-0.104
R312Q	-0.932	1.39	-0.449	-0.305	-0.907
R317_E318del	1.05	1.75	1.22	1.1	0.267
A319_Y320del	0.58	0.468	0.918	1.19	0.457
S311_T313del	-0.076		-0.296	-0.597	-0.584
R315del	-0.137	-1.4	1.15	0.289	0.012
R312_G314del	-0.171	-0.287	-0.593	0.173	-0.126
L308_T309insG	0.691	2.05	0.03	0.91	0.578
Y320E	-0.231	0.277	0.321	-0.008	0.437
Y320D	0.278	-0.688	0.696	-0.104	0.668
Y320C	-0.322	-0.223	-0.201	0.366	-0.349
Y320I	0.544	0.787	0.834	0.203	1.48
Y320K	0.288	-0.078	0.567	1.32	-1.04
Y320A	0.933	0.091	0.544	0.352	0.465
Y320F	1.07	0.116	1.38	0.472	0.633
Y320G	-0.411		-0.663		1.76
Y320H	0.102	0.495	0.129	0.451	-0.027
G314_R315del	0.686		0.438	-0.369	-0.63

Scores with a large standard error are left out. Two further conditions of the source, in which the scores hardly spread, are not listed. Names with del lack the residues named; names with ins carry added residues between the positions named. For some of these results: How much ogerin was present is not stated here.
